No constants are given. Whether binding was seen depends on the method and setting.

One substance from PMC10626271 can be followed below.

The target in the test is T1, C-terminal domain of ASPL (ASPL-C, residues 313-553) (human) (UniProt Q9BZE9).
T1 sequence: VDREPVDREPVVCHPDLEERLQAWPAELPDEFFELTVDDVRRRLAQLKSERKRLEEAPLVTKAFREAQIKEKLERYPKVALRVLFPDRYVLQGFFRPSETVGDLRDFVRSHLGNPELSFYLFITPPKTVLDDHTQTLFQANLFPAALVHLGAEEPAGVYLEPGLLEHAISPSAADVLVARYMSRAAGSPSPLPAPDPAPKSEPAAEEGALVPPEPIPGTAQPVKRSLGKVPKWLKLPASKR
Nature of the test: SPR; ASPL-C immobilised on CM5 chip by amine coupling (1000 RU); analytes 0.6 to 83 μM in 10 mM HEPES, 150 mM NaCl, 0.005% Tween20, pH 7.4; BIAcore 3000, duplicates; one-site specific binding fit of the response against concentration; no saturation reached; both purified. A general note: SPR reads the build-up and loss of mass on a sensor chip optically.

Take “His-tagged thioredoxin (Trx) (from UniProt P0AA25 1-109)”: the binding result is “no binding (tested: 0.6 to 83 μM)”.
